Measurements as given in the supplement of paper PMC9135407.
Several values for one entry are separate records, joined by “and”; a condition that tells them apart may be missing. Equal values may be shown once. Where a name gives a salt, the structure may show the parent alone. The whole screen tested about 5,800 compounds, of which about 620 (11%) showed activity.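 The calls were made as follows: active = score above a cut-off or among the top three wells of a plate; in these data no inactive exceeds 0.85.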 This is a selection; strong and weak results do not stand in their true shares.

Tested on: primary human hepatic stellate cells (donor 1)
Test: scaled lipid accumulation score (0 = DMSO-like, 1 = nortriptyline-like); higher = stronger HSC inactivation (lipid re-accumulation), active = hit call of the paper
Conditions: 48 h
[1] = library stock concentration: 3.33 mM
[2] = library stock concentration: 10 mM
[3] = library stock concentration: 1 mM

## C[C@]12N[C@H](Cc3ccccc31)c1ccccc12 [MK-801 (Dizocilpine)]
[1]
  scaled lipid accumulation score: inactive: ≤ 0
[2]
  scaled lipid accumulation score: inactive: ≤ 0

## C[C@]12N[C@H](Cc3ccccc31)c1ccccc12 [Dizocilpine maleate]
  scaled lipid accumulation score: inactive: 0.219
Library stock concentration: 5.9 mM
  scaled lipid accumulation score: inactive: 0.083

## C[N+]1([O-])[C@@H]2C[C@@H](OC(=O)[C@H](CO)c3ccccc3)C[C@H]1[C@@H]1O[C@@H]12 (stereo partly drawn) [Scopolamin-N-oxide hydrobromide]
  scaled lipid accumulation score: inactive: 0.093

## CC(=O)Nc1ccc(OC[C@](C)(O)C(=O)Nc2ccc([N+](=O)[O-])c(C(F)(F)F)c2)cc1 [Andarine]
[1]
  scaled lipid accumulation score: inactive: ≤ 0
[2]
  scaled lipid accumulation score: inactive: ≤ 0

## Oc1cc2c(cc1O)[C@H]1c3ccccc3CN[C@@H]1CC2 (racemic)
[2]
  scaled lipid accumulation score: inactive: 0.538

## Oc1cc2c(cc1O)[C@H]1c3ccccc3CN[C@@H]1CC2 (racemic) [Dihydrexidine hydrochloride]
[2]
  scaled lipid accumulation score: inactive: 0.823

## CC(=O)O[C@H]1C[C@H](O[C@H]2[C@@H](O)C[C@H](O[C@H]3[C@@H](O)C[C@H](O[C@H]4CC[C@@]5(C)[C@H](CC[C@@H]6[C@@H]5C[C@@H](O)[C@]5(C)[C@@H](C7=CC(=O)OC7)CC[C@]65O)C4)O[C@@H]3C)O[C@@H]2C)O[C@H](C)[C@H]1O[C@@H]1O[C@H](CO)[C@@H](O)[C@H](O)[C@H]1O [Lanatoside c]
Library stock concentration: 2 mM
  scaled lipid accumulation score: active: 0.894
[2]
  scaled lipid accumulation score: active: 0.892

## CC(=O)O[C@H]1C[C@H](O[C@H]2[C@@H](O)C[C@H](O[C@H]3[C@@H](O)C[C@H](O[C@H]4CC[C@@]5(C)[C@H](CC[C@@H]6[C@@H]5C[C@@H](O)[C@]5(C)[C@@H](C7=CC(=O)OC7)CC[C@]65O)C4)O[C@@H]3C)O[C@@H]2C)O[C@H](C)[C@H]1O[C@@H]1O[C@H](CO)[C@@H](O)[C@H](O)[C@H]1O [Lanatoside C]
  scaled lipid accumulation score: active: 1.08

## C[C@H]1CCC[C@H](O)CCCCCc2cc(O)cc(O)c2C(=O)O1
[2]
  scaled lipid accumulation score: inactive: ≤ 0

## COc1ccc(CCN2CCC(Nc3nc4ccccc4n3Cc3ccc(F)cc3)CC2)cc1 [Astemizole]
Library stock concentration: 4.4 mM
  scaled lipid accumulation score: inactive: 0.824 and inactive: 0.409
[2]
  scaled lipid accumulation score: inactive: 0.475

## CC(N)Cc1c[nH]c2ccc(O)cc12 (stereo not drawn) [alpha-Methyl-5-hydroxytryptamine maleate]
[2]
  scaled lipid accumulation score: inactive: ≤ -0.055

## CC(N)Cc1c[nH]c2ccc(O)cc12 (stereo not drawn)
[2]
  scaled lipid accumulation score: inactive: ≤ 0

## CN(N=O)c1cc(O)ccc1O [Dephostatin]
[2]
  scaled lipid accumulation score: inactive: 0.013

## CN1C[C@H](CO)C=C2c3cccc4[nH]cc(c34)C[C@H]21 [Lysergol]
  scaled lipid accumulation score: inactive: ≤ 0

## Oc1ccc2c3c1O[C@H]1c4c(c5ccccc5n4Cc4ccccc4)C[C@@]4(O)C(C2)N(CC2CC2)CC[C@]314 [N-Benzylnaltrindole hydrochloride]
[2]
  scaled lipid accumulation score: inactive: 0.77

## BrC1C(Br)C(Br)C(Br)C(Br)C1Br (stereo not drawn) [1,2,3,4,5,6-Hexabromocyclohexane]
[2]
  scaled lipid accumulation score: inactive: ≤ -0.001

## C[C@](O)(COc1ccc(C#N)cc1)C(=O)Nc1ccc(C#N)c(C(F)(F)F)c1
[1]
  scaled lipid accumulation score: inactive: 0.047
[2]
  scaled lipid accumulation score: inactive: ≤ 0

## CCC(N)C(O)c1ccc(O)c(O)c1 (stereo not drawn) [Ethylnorepinephrine hydrochloride]
Library stock concentration: 8.6 mM
  scaled lipid accumulation score: inactive: ≤ 0
[2]
  scaled lipid accumulation score: inactive: ≤ -0.027

## CC1=C2[C@H]3OC(=O)[C@@H](C)[C@@H]3CC[C@@]2(C)C=CC1=O [alpha-Santonin]
  scaled lipid accumulation score: inactive: ≤ 0

## C/C=C1\C[C@@H](C)[C@](O)(CO)C(=O)OCC2=CCN3CC[C@@H](OC1=O)[C@@H]23 [Retrorsine]
  scaled lipid accumulation score: inactive: ≤ 0

## c1ccc(C2(c3ccccc3)CC2C2=NCCN2)cc1 (stereo not drawn) [Cibenzoline succinate]
[2]
  scaled lipid accumulation score: inactive: 0.479

## CCCN(CCC)C1CCc2ccc(O)cc2C1 (stereo not drawn) [(?)-7-Hydroxy-DPAT hydrobromide]
[2]
  scaled lipid accumulation score: inactive: 0.186

## CCCN(CCC)C1CCc2ccc(O)cc2C1 (stereo not drawn) [7-Hydroxy-DPAT hydrobromide]
[2]
  scaled lipid accumulation score: inactive: 0.006

## CCCN(CCC)C1CCc2ccc(O)cc2C1 (stereo not drawn) [R-(+)-7-Hydroxy-DPAT hydrobromide]
[2]
  scaled lipid accumulation score: inactive: ≤ -0.07

## NNC(N)=O [Semicarbazide hydrochloride]
[2]
  scaled lipid accumulation score: inactive: ≤ 0

## O=C[C@H](Cl)[C@@H](O)[C@H](O)[C@H](O)CO [2-Chloro-2-deoxy-D-glucose]
[2]
  scaled lipid accumulation score: inactive: ≤ -0.07

## CNCC(=O)c1ccc(O)c(O)c1 [Adrenalone HCl]
[1]
  scaled lipid accumulation score: inactive: ≤ 0
[2]
  scaled lipid accumulation score: inactive: ≤ -0.001

## CNCC(=O)c1ccc(O)c(O)c1
[2]
  scaled lipid accumulation score: inactive: ≤ 0

## O=C(NC(=O)c1c(F)cccc1F)Nc1cc(Cl)c(OC(F)(F)C(F)C(F)(F)F)cc1Cl (stereo not drawn)
[2]
  scaled lipid accumulation score: inactive: 0.572

## Cc1cc2c(C(C)C)c(O)c(O)c(C=O)c2c(O)c1-c1c(C)cc2c(C(C)C)c(O)c(O)c(C=O)c2c1O
[2]
  scaled lipid accumulation score: active: 0.999

## CN1C2CC(O)CC1C1OC12 (stereo not drawn) [Scopine]
[1]
  scaled lipid accumulation score: inactive: ≤ 0
[2]
  scaled lipid accumulation score: inactive: ≤ 0

## CC(C)N(CCNC(=O)CN1CCCC1=O)C(C)C [Pramiracetam]
[1]
  scaled lipid accumulation score: inactive: ≤ 0
[2]
  scaled lipid accumulation score: inactive: ≤ 0

## Cc1n[nH]c2ccc(-c3cncc(OC[C@@H](N)Cc4c[nH]c5ccccc45)c3)cc12
Library stock concentration: 400 uM
  scaled lipid accumulation score: active: 1

## CC(C)(c1ccc(OCC2CO2)cc1)c1ccc(OCC2CO2)cc1 (stereo not drawn)
[3]
  scaled lipid accumulation score: inactive: ≤ 0
[2]
  scaled lipid accumulation score: inactive: 0.01
Library stock concentration: 14.7 mM
  scaled lipid accumulation score: inactive: ≤ -0.012

## CS(=O)(=O)O.Oc1ccc2c3c1O[C@H]1c4oc5ccccc5c4C[C@@]4(O)C(C2)N(CC2CC2)CCC314 (stereo partly drawn) [Naltriben methanesulfonate]
[2]
  scaled lipid accumulation score: active: 1.11

## CC(C)(C)NCC(O)c1cc(Cl)c(N)c(Cl)c1 (stereo not drawn) [Clenbuterol]
Library stock concentration: 7.2 mM
  scaled lipid accumulation score: inactive: 0.063

## CC(C)(C)NCC(O)c1cc(Cl)c(N)c(Cl)c1 (stereo not drawn) [Clenbuterol hydrochloride]
  scaled lipid accumulation score: inactive: 0.003

## C=C(C)[C@H]1Cc2c(ccc3c2O[C@@H]2COc4cc(OC)c(OC)cc4[C@@H]2C3=O)O1 [Rotenone]
[2]
  scaled lipid accumulation score: inactive: ≤ 0

## COC(=O)C1=CCCN(C)C1 [Arecoline]
[1]
  scaled lipid accumulation score: inactive: ≤ 0
[2]
  scaled lipid accumulation score: inactive: ≤ 0

## COC(=O)C1=CCCN(C)C1 [Arecoline hydrobromide]
  scaled lipid accumulation score: inactive: 0.062
[2]
  scaled lipid accumulation score: inactive: ≤ 0

## CC(CN)CC(=O)O (stereo not drawn) [3-Methyl-GABA]
[2]
  scaled lipid accumulation score: inactive: 0.011

## O=C1CSC(c2ccccc2Cl)c2cc(Cl)ccc2N1 (stereo not drawn)
[2]
  scaled lipid accumulation score: inactive: ≤ -0.006
Library stock concentration: 15.4 mM
  scaled lipid accumulation score: inactive: 0.158

## NNC(=O)c1ccc(O)cc1 [4-Hydroxybenzhydrazide]
[2]
  scaled lipid accumulation score: inactive: ≤ -0.07

## CCCC[C@H]1C(=O)O[C@H](C)[C@H](NC(=O)c2cccc(NC=O)c2OC)C(=O)O[C@@H](C)[C@@H]1OC(=O)CC(C)C [2-methoxyantimycin A3]
Library stock concentration: 9.4 mM
  scaled lipid accumulation score: inactive: 0.292

## C[C@H]1O[C@@H](O[C@@H]2C[C@H](O)[C@]3(CO)[C@H]4[C@H](O)C[C@]5(C)[C@H](C6=CC(=O)OC6)CC[C@]5(O)[C@@H]4CC[C@]3(O)C2)[C@@H](O)[C@H](O)[C@H]1O.O.O.O.O.O.O.O.O [Ouabain]
[1]
  scaled lipid accumulation score: active: 1.05
[2]
  scaled lipid accumulation score: active: 1.06

## C[C@]12CC[C@H]3[C@@H](CC[C@@]45O[C@@H]4C(O)=C(C#N)C[C@]35C)[C@@H]1CC[C@@H]2O
[2]
  scaled lipid accumulation score: inactive: ≤ 0

## C[C@]12CC[C@H]3[C@@H](CC[C@@]45O[C@@H]4C(O)=C(C#N)C[C@]35C)[C@@H]1CC[C@@H]2O [Trilostane]
[1]
  scaled lipid accumulation score: inactive: ≤ 0
[2]
  scaled lipid accumulation score: inactive: ≤ 0

## O=C(N/N=C/c1ccc([N+](=O)[O-])o1)c1cc([N+](=O)[O-])cc([N+](=O)[O-])c1O
[2]
  scaled lipid accumulation score: inactive: ≤ 0

## Cc1c(N)nc(C(CC(N)=O)NCC(N)C(N)=O)nc1C(=O)NC(C(=O)NC(C)C(O)C(C)C(=O)NC(C(=O)NCCc1nc(-c2nc(C(=O)NCCC[S+](C)C)cs2)cs1)C(C)O)C(O[C@@H]1O[C@@H](CO)[C@@H](O)[C@H](O)[C@@H]1O[C@H]1O[C@H](CO)[C@@H](O)[C@H](OC(N)=O)[C@@H]1O)c1cnc[nH]1 (stereo partly drawn) [Bleomycin Sulfate]
[1]
  scaled lipid accumulation score: inactive: ≤ 0
[2]
  scaled lipid accumulation score: inactive: ≤ 0

## CCCCC/C=C\C/C=C\C/C=C\C/C=C\CCCC(=O)NC(CO)CO [Arachidonoyl Serinol]
[3]
  scaled lipid accumulation score: inactive: 0.066

## C[C@@H]1NCCc2cc(O)c(O)cc21 [Salsolinol hydrobromide]
  scaled lipid accumulation score: inactive: ≤ 0

## CCC1(CC)C(=O)C=CNC1=O [Pyrithyldione]
  scaled lipid accumulation score: inactive: ≤ 0
[2]
  scaled lipid accumulation score: inactive: 0.049

## NCCCP(=O)(O)O [3-Aminopropylphosphonic acid]
[2]
  scaled lipid accumulation score: inactive: ≤ 0

## CCCOc1ccc2[nH]cc(C3=CCNCC3)c2n1
[2]
  scaled lipid accumulation score: inactive: 0.748

## COc1ccc(Cc2nccc3cc(OC)c(OC)cc23)cc1OC [Papaverine hydrochloride]
  scaled lipid accumulation score: inactive: ≤ 0
Library stock concentration: 5.3 mM
  scaled lipid accumulation score: inactive: ≤ -0.001
[2]
  scaled lipid accumulation score: inactive: ≤ 0 and inactive: ≤ -0.055

## N=C1NC(=O)N2CC12 (stereo not drawn)
[2]
  scaled lipid accumulation score: inactive: 0.032

## NCC(O)c1ccc(O)cc1 (racemic) [(+,-)-Octopamine HCl]
[1]
  scaled lipid accumulation score: inactive: ≤ 0
[2]
  scaled lipid accumulation score: inactive: ≤ -0.001

## NCC(O)c1ccc(O)cc1 (racemic) [(+,-)-Octopamine hydrochloride]
  scaled lipid accumulation score: inactive: ≤ 0

## CCCCCCCCCC(=O)OC[C@H](COP(=O)([O-])OCC[N+](C)(C)C)OC(=O)CCCCCCCCC [1,2-Didecanoyl PC]
[3]
  scaled lipid accumulation score: inactive: ≤ 0

## CN=C(NS(=O)(=O)c1ccc(Cl)cc1)N1C[C@H](c2ccccc2)C(c2ccc(Cl)cc2)=N1
[3]
  scaled lipid accumulation score: inactive: ≤ 0

## CCCCCc1cc(O)c2c(c1)OC(C)(C)C1CCC(C(=O)O)=CC21 (stereo not drawn) [Tetrahydrocannabinol-7-oic acid]
[3]
  scaled lipid accumulation score: inactive: ≤ -0.021
